Some of the results follow. Many values rest on one well or one pass, so single values are uncertain.
What follows are compounds tested on COLO792 (assay: cell count relative to DMSO control; melanoma cells; higher = more viable cells). Settings: library dose: standard library concentration; 72 h.
`Cn1c(=O)n(-c2ccc(C(C)(C)C#N)cc2)c2c3cc(-c4cnc5ccccc5c4)ccc3ncc21` + COc1ccc(-c2ccc3c(N4CCOCC4)nc(N4C[C@@H](C)O[C@@H](C)C4)nc3n2)cc1CO [KU0063794] (first compound 0.02 µM, partner dose 0.1 µM) was tested, and the cell count was 66.1%. In the case of `Cc1cn(-c2cc(NC(=O)c3ccc(C)c(Nc4nccc(-c5cccnc5)n4)c3)cc(C(F)(F)F)c2)cn1` [nilotinib] + CC1(C)NC(=O)N(c2ccc([N+](=O)[O-])c(C(F)(F)F)c2)C1=O [nilutamide] (first compound 1 µM, partner dose 5 µM), the cell count is reported as 88.6%. In the case of `Cn1c(=O)n(-c2ccc(C(C)(C)C#N)cc2)c2c3cc(-c4cnc5ccccc5c4)ccc3ncc21` + CN(NC(=O)CC(=O)NN(C)C(=S)c1ccccc1)C(=S)c1ccccc1 [STA4783] (first compound 0.02 µM, partner dose 0.03 µM), the cell count is reported as 26.7%. With `Cc1cn(-c2cc(NC(=O)c3ccc(C)c(Nc4nccc(-c5cccnc5)n4)c3)cc(C(F)(F)F)c2)cn1` [nilotinib] + C[C@@H]1CCN(C(=O)CC#N)C[C@@H]1N(C)c1ncnc2[nH]ccc12 [CP690550] (first compound 1 µM, partner dose 5 µM) the cell count was 111%.

What follows are compounds tested on COLO800 in the same assay as above. Settings: library dose: standard library concentration; 72 h.
In the case of `Cc1cn(-c2cc(NC(=O)c3ccc(C)c(Nc4nccc(-c5cccnc5)n4)c3)cc(C(F)(F)F)c2)cn1` [nilotinib] + O=C(CCCCCCC(=O)Nc1ccccc1)NO [vorinostat] (first compound 1 µM, partner dose 0.4 µM), the cell count is reported as 96.3%. In the case of `COc1ccc(C2=N[C@@H](c3ccc(Cl)cc3)[C@@H](c3ccc(Cl)cc3)N2C(=O)N2CCNC(=O)C2)c(OC(C)C)c1` [Nutlin-3] + O=C(O)c1ccc2c(c1)nc(Nc1cccc(Cl)c1)c1ccncc12 [CX4945] (first compound 0.5 µM, partner dose 2 µM), the cell count is reported as 57.3%. In the case of `Cc1cc(Nc2cc(N3CCN(C)CC3)nc(/C=C/c3ccccc3)n2)n[nH]1` + Cn1cc(/C=C2\C(=O)Nc3cccnc32)c2ccccc21 [GW441756] (first compound 0.2 µM, partner dose 2 µM), the cell count is reported as 51.2%. Work on `Cc1cn(-c2cc(NC(=O)c3ccc(C)c(Nc4nccc(-c5cccnc5)n4)c3)cc(C(F)(F)F)c2)cn1` [nilotinib] + CCCS(=O)(=O)Nc1ccc(F)c(C(=O)c2c[nH]c3ncc(Cl)cc23)c1F [PLX4720] (first compound 1 µM, partner dose 0.4 µM) yielded a cell count of 74.5%. In the case of `Cn1c(=O)n(-c2ccc(C(C)(C)C#N)cc2)c2c3cc(-c4cnc5ccccc5c4)ccc3ncc21` + CC(C)(C)c1cnc(CSc2cnc(NC(=O)C3CCNCC3)s2)o1 [SNS-032] (first compound 0.02 µM, partner dose 0.05 µM), the cell count is reported as 69%. `Cc1cc(Nc2cc(N3CCN(C)CC3)nc(/C=C/c3ccccc3)n2)n[nH]1` + COc1cc(N2CCC(N3CCN(C)CC3)CC2)ccc1Nc1ncc(Cl)c(Nc2ccccc2S(=O)(=O)C(C)C)n1 [NVP-TAE684] (first compound 0.2 µM, partner dose 0.4 µM) was tested, and the cell count was 29.3%. `Cc1cn(-c2cc(NC(=O)c3ccc(C)c(Nc4nccc(-c5cccnc5)n4)c3)cc(C(F)(F)F)c2)cn1` [nilotinib] + COc1ccc(-c2ccc3c(N4CCOCC4)nc(N4C[C@@H](C)O[C@@H](C)C4)nc3n2)cc1CO [KU0063794] (first compound 1 µM, partner dose 0.1 µM) was tested, and the cell count was 90.4%. `COc1ccc(C2=N[C@@H](c3ccc(Cl)cc3)[C@@H](c3ccc(Cl)cc3)N2C(=O)N2CCNC(=O)C2)c(OC(C)C)c1` [Nutlin-3] + Nc1nc(F)nc2c1ncn2[C@@H]1O[C@H](CO)[C@@H](O)[C@@H]1O [fludarabine] (first compound 0.5 µM, partner dose 1 µM) was tested, and the cell count was 111%. `Cn1c(=O)n(-c2ccc(C(C)(C)C#N)cc2)c2c3cc(-c4cnc5ccccc5c4)ccc3ncc21` + CN(C)S(=O)(=O)c1ccc2c(c1)/C(=C/c1cc3c([nH]1)CCCC3)C(=O)N2 [SU6656] (first compound 0.02 µM, partner dose 2 µM) was tested, and the cell count was 63.5%. Compound `COc1ccc(C2=N[C@@H](c3ccc(Cl)cc3)[C@@H](c3ccc(Cl)cc3)N2C(=O)N2CCNC(=O)C2)c(OC(C)C)c1` [Nutlin-3] + C[C@]1(O)C[C@@H](c2nc(-c3ccc4ccc(-c5ccccc5)nc4c3)c3c(N)nccn32)C1 [OSI906] (first compound 0.5 µM, partner dose 2 µM) has a cell count of 50.4%.

Reference: the supplement of paper PMC4604168 (melanoma cell lines)
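Further: cells treated in 1,536-well plates, then fixed and DAPI-stained, with nuclei counted from automated high-throughput microscope images.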
